From publication PMC6262466, “Towards Initial Indications for a Thiol-Based Redox Control of Arabidopsis 5-Aminolevulinic Acid Dehydratase” (Antioxidants, 2018)
Residue numbers refer to the chain shown, from its start. These are yes or no findings as the source states them, for the method shown. For part of these data: Binding seen in cells or lysates may run through a third protein. Some binding calls cover weakened binding; strength is not graded here. Tags and fused reporters may be left off the sequences shown.

What was measured:
[1] = target: T1, thioredoxin f1 (TRX f1), split-YFP fusion for BiFC (Arabidopsis thaliana) (UniProt Q9XFH8); assay: split reporter; fusions to the C- or N-terminal part of YFP (pVYCE, pVYNE), transiently expressed in Nicotiana benthamiana leaves for 48-72 h in darkness; YFP fluorescence by confocal microscopy
T1 sequence: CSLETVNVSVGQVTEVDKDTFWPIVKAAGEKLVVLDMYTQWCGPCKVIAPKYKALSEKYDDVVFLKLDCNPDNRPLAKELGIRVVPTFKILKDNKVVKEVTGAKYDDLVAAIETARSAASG

[2] = target: T2, NADPH-dependent thioredoxin reductase C (NTRC), split-YFP fusion for BiFC (Arabidopsis thaliana) (UniProt O22229); assay: as above
T2 sequence: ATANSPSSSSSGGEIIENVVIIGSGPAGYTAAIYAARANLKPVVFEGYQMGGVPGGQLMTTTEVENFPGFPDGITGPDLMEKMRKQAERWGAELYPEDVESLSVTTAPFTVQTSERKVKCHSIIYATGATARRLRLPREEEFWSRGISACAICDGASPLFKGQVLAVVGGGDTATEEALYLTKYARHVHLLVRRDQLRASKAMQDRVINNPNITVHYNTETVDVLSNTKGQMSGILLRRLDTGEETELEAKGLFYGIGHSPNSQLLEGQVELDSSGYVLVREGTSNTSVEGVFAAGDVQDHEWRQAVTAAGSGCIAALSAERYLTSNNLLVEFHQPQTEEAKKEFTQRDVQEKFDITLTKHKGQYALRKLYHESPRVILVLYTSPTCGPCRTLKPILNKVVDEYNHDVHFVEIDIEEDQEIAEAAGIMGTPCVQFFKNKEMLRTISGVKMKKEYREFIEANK

[3] = target: T3, thioredoxin m4 (TRX m4), split-YFP fusion for BiFC (Arabidopsis thaliana) (UniProt Q9SEU6); assay: as above
T3 sequence: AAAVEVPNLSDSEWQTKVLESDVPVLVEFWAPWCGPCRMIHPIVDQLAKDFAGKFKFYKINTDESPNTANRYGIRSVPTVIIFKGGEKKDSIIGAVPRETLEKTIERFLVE

[4] = target: T4, 6 x His-tagged TRX m4(C119S) (Arabidopsis thaliana) (UniProt Q9SEU6); assay: pull-down; 100 ug purified 6 x His-tagged bait on Ni-NTA agarose in PBS; incubated 1.5 h at 4 C with Arabidopsis chloroplast extract solubilized with 1% dodecyl maltoside; five washes with PBS; eluted with 250 mM imidazole; immunoblot; only the target purified
T4 sequence: T3 sequence with C37S

[5] = target: T5, 6 x His-tagged NTRC(C457S) (Arabidopsis thaliana) (UniProt O22229); assay: as above
T5 sequence: T2 sequence with C390S

[6] = target: recombinant His-tagged ALAD (ALAD1 without the predicted transit peptide) (Arabidopsis thaliana) (UniProt Q9SFH9); assay: condition: only under reducing conditions (DTT 1-100 mM); non-reducing SDS-PAGE with immunoblot; 0.5 uM purified His-ALAD preincubated in PBS with DTT (1-100 mM), reduced; non-reducing 10% SDS polyacrylamide gel; anti-His blot; both purified

B1: 5-aminolevulinic acid dehydratase (ALAD), split-YFP fusion for BiFC (enzyme, UniProt Q9SFH9 53-430)
chain: ASESGNGHAKKLGMSDAECEAAVAAGNVPEAPPVPPKPAAPVGTPIIKPLNLSRRPRRNRASPVTRAAFQETDISPANFVYPLFIHEGEEDTPIGAMPGCYRLGWRHGLVQEVAKARAVGVNSIVLFPKVPEALKNSTGDEAYNDNGLVPRTIRLLKDKYPDLIIYTDVALDPYSSDGHDGIVREDGVIMNDETVHQLCKQAVSQARAGADVVSPSDMMDGRVGAIRSALDAEGFQNVSIMSYTAKYASSFYGPFREALDSNPRFGDKKTYQMNPANYREALIEAREDEAEGADILLVKPGLPYLDIIRLLRDKSPLPIAAYQVSGEYSMIKAGGVLKMIDEEKVMMESLMCLRRAGADIILTYFALQAATCLCGEKR
Question: Which results are given for B1?
Answer: binding [1]: binds; binding [2]: binds; binding [3]: binds

B2: 5-aminolevulinic acid dehydratase (ALAD), endogenous in chloroplast extract (enzyme, UniProt Q9SFH9 53-430)
chain: B1 chain
Question: For B2, which binding [4] is on record?
Answer: The binding was “binds”.

Question: And the binding [5]?
Answer: The binding was “binds”.

B3: recombinant His-tagged ALAD (ALAD1 without the predicted transit peptide) (enzyme, Arabidopsis thaliana, UniProt Q9SFH9 53-430, looked up)
chain: B1 chain
notes: Arabidopsis thaliana ALAD1 (HEMB1; AT1G69740) without the predicted transit peptide (ChloroP); also called recombinant ALAD; purified ALAD; source: E. coli Rosetta(DE3), pET28a, purified (Ni-NTA agarose); not shown: His6, N-terminal, kept
Question: With B3 as the binder, how does the binding [6] read?
Answer: Its binding is “no binding”.
